In PubChem BioAssay AID1963576 (National Center for Advancing Translational Sciences (NCATS), 2024):
The whole screen tested about 46,000 compounds, of which about 60 (0.1%) were called active. Roughly 3% stayed inconclusive and do not appear here. The call rests on the fitted dose curve; in most records, active means well fitted inhibition curve with a large enough effect; inconclusive means small, poorly fitted or top-dose-only effect; inactive means no such curve, though single readings can be large or run the other way. This is one part of the list.

Assay: Primary qHTS assay for Inhibitors of ovarian cancer metastasis using an organotypic tumor microenvironment (TME) model. Further: nearly all actives have a fitted effect of over 65% in size.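 On activity change, negative = inhibition: plate controls were DMSO wells for no effect and tomatine positive control wells for full effect.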
Settings: SKOV3ip1-GFP adhesion/invasion on 3D omental model, fluorescence; series mostly up to 45.8 µM; activity change, negative = inhibition: at the top concentration
Procedure, shortened: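 Adhesion/invasion was scored as fixed GFP-labeled SKOV3ip1 cell counts (488/509 nm), normalized to DMSO and tomatine controls. Cancer cells in serum-free medium, with four compound doses (0.36-46 umol/L), sat 2 hr at RT then 16 hr at 37 C on a 48 hr fibroblast/mesothelial/ECM culture.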

Q: Which “activity change, negative = inhibition” value does the source give for `CC(C)CCNC(=O)CN1C(=O)CCn2nc(-c3cn(C)c4ccccc34)cc21` here?
A: The value was inactive: 8.88%.

Q: For `COc1ccc(C)c2sc(NC(=O)c3ccc(S(=O)(=O)N4CCCCC4)cc3)nc12`, which “activity change, negative = inhibition” value is on record?
A: Its value is inactive: -3.23%.

Q: With `CCOc1ccc(NC(=O)CSc2oc(-c3ccco3)nc2S(=O)(=O)c2ccc(C)cc2)cc1` as the compound, how does the “activity change, negative = inhibition” value read?
A: Its value is inactive: 11%.

Q: With `COc1ccc(N2CC(NC(=O)COc3ccccc3F)CC2=O)cc1OC` (centres undefined) as the compound, how does the “activity change, negative = inhibition” value read?
A: Its value is inactive: 19.6%.

Q: With `Cc1cc(C)cc(Nc2ncnc3c2nc2n3CCCC2)c1` as the compound, how does the “outcome” value read?
A: The value was “inactive”.

Q: For `CCOc1ccc(CCNC(=O)c2ccc(-c3nc(CSc4ccc(C)cc4)c(C)o3)cc2)cc1`, which “activity change, negative = inhibition” value is on record?
A: Its value is inactive: -2.82%.

Q: Which “activity change, negative = inhibition” value does the source give for `Cc1nnc(SCc2cc(=O)c3ccccc3[nH]2)s1` here?
A: Its value is inactive: -1.05%.

Q: With `Cc1nc(S(=O)(=O)N2CCN(c3ccc(Cl)cc3)CC2)cn1C` as the compound, how does the “activity change, negative = inhibition” value read?
A: The value was inactive: 47.7%.

Q: Which “activity change, negative = inhibition” value does the source give for `CCCOc1ccc(/C=C/C(=O)Nc2sc(C)c(C)c2C(=O)OCC)cc1OC` here?
A: Its value is inactive: -0.799%.

Q: Which “outcome” value does the source give for `CCCOc1ccc(NC(=O)CC2C(=O)N(c3ccc(C)cc3)C(=O)N2C(C)C)cc1` (centres undefined) here?
A: Its value is “inactive”.

Q: Which “activity change, negative = inhibition” value does the source give for `CCCN1CCN(CCCNC(=O)c2cc3c(Cl)nc4ccccc4c3s2)CC1` here?
A: Its value is inactive: -4.48%.

Q: Which “activity change, negative = inhibition” value does the source give for `COC(=O)c1cc(NC(=O)Nc2ccc3snnc3c2)cc(C(=O)OC)c1` here?
A: The value was inactive: 11.1%.

Q: For `CC[C@H](CC[C@@H](C)[C@H]1CC[C@H]2[C@@H]3CC=C4C[C@@H](O)CC[C@]4(C)[C@@H]3CC[C@]12C)C(C)C`, which “activity change, negative = inhibition” value is on record?
A: Its value is inactive: -10.5%.

Q: For `Cc1cccc(C)c1NC(=O)CN1C(=O)CCSc2ccc(S(=O)(=O)N3CCCC3)cc21`, which “activity change, negative = inhibition” value is on record?
A: The value was inactive: -9.47%.

Q: For `COc1ccc(N(CC(=O)Nc2ccc(C)c(C)c2)S(=O)(=O)c2ccc(C)cc2)cc1OC`, which “activity change, negative = inhibition” value is on record?
A: The value was inactive: -1.35%.

Q: With `Cc1ccc(C)c(N2C(=O)N(Cc3c(F)cccc3Cl)c3ccccc3S2(=O)=O)c1` as the compound, how does the “activity change, negative = inhibition” value read?
A: Its value is inactive: -10.6%.

Q: For `CCN(Cc1nc(-c2cccc(C)c2)no1)S(=O)(=O)c1ccc(C)cc1`, which “activity change, negative = inhibition” value is on record?
A: Its value is inactive: -16.3%.

Q: For `O=C(COc1ccccc1)Nc1sc2c(c1C(=O)Nc1ccccc1Cl)CCCCC2`, which “outcome” value is on record?
A: The value was “inactive”.

Q: With `CC(=O)OCc1cc(=O)n2nc(C3CCCCC3)sc2n1` as the compound, how does the “activity change, negative = inhibition” value read?
A: The value was inactive: -10.3%.

Q: With `Cc1ccccc1-c1noc(-c2ccc(N3CCN(c4ccccc4)CC3)c([N+](=O)[O-])c2)n1` as the compound, how does the “activity change, negative = inhibition” value read?
A: Its value is inactive: -2.39%.

Q: With `COc1ccccc1N1CCN(C(=O)c2cc3c(=O)n(C)c4ccccc4c3s2)CC1` as the compound, how does the “activity change, negative = inhibition” value read?
A: The value was inactive: -7.65%.

Q: For `COc1ccc(-c2nc(SCC(=O)NC3CCCC3)c(-c3ccc(OC)cc3)[nH]2)cc1`, which “activity change, negative = inhibition” value is on record?
A: Its value is inactive: 35.6%.

Q: For `COc1ccc(CNC(=O)Cn2nc(C)n3cccc3c2=O)cc1`, which “activity change, negative = inhibition” value is on record?
A: The value was inactive: -4.78%.

Q: For `Cc1c(Cl)cccc1-n1ncc(C(=O)N2CCN(C)CC2)c1C1CCN(C(=O)OC(C)(C)C)CC1`, which “activity change, negative = inhibition” value is on record?
A: Its value is inactive: 11.4%.

Q: Which “outcome” value does the source give for `COc1ccc(S(=O)(=O)n2nc(C)c(S(=O)(=O)N3CCCCC3)c2C)cc1` here?
A: Its value is “inactive”.

Q: With `CC1CCN(C(=O)c2ccc3c(c2)N(Cc2ccccc2F)C(=O)c2ccccc2S3(=O)=O)CC1` as the compound, how does the “activity change, negative = inhibition” value read?
A: Its value is inactive: 12.4%.

Q: With `Cc1ccc(NC(=O)C(=O)NCC(c2cccnc2)N2CCOCC2)cc1` (centres undefined) as the compound, how does the “activity change, negative = inhibition” value read?
A: The value was inactive: 0.245%.

Q: Which “outcome” value does the source give for `COCCCN(Cc1ccco1)C(=O)c1cc2c(s1)-c1ccccc1OC2` here?
A: Its value is “inactive”.

Q: With `O=C(Nc1ncc(-c2cc(C(F)F)nn2-c2c(Cl)cccc2Cl)s1)C1CC1` as the compound, how does the “activity change, negative = inhibition” value read?
A: Its value is inactive: 44.5%.

Q: For `CC(=O)c1ccc(N2CCN(c3ncnc4c3c(-c3ccccc3)cn4-c3ccc(C)c(Cl)c3)CC2)cc1`, which “outcome” value is on record?
A: The value was “inactive”.

Q: Which “outcome” value does the source give for `COc1ccccc1-c1noc(-c2ccc(N3CCOCC3)c([N+](=O)[O-])c2)n1` here?
A: Its value is “inactive”.

Q: Which “activity change, negative = inhibition” value does the source give for `CCc1ccc(NC(=O)CC(c2cc(OC)c(OC)c(OC)c2)N2Cc3ccccc3C2=O)cc1` (centres undefined) here?
A: The value was inactive: -12.3%.

Q: For `O=C(CSc1nc(-c2cccs2)nc2cc(=O)[nH]n12)Nc1ccccc1`, which “activity change, negative = inhibition” value is on record?
A: Its value is inactive: -21.8%.

Q: Which “outcome” value does the source give for `COc1ccccc1CNC(=O)CN1C(=O)CCc2cc(S(=O)(=O)N3CCCCC3)ccc21` here?
A: Its value is “inactive”.

Q: For `COc1ccc(C(=O)NCCn2cc(SCc3cccc(F)c3)c3ccccc32)cc1OC`, which “activity change, negative = inhibition” value is on record?
A: Its value is inactive: -17%.

Q: With `CCCN(CCC)CCNC(=O)Cn1cnc2sc(C)c(S(=O)(=O)N3CCC(C)CC3)c2c1=O` as the compound, how does the “activity change, negative = inhibition” value read?
A: The value was inactive: 8.01%.

Q: For `FC(F)(F)c1cccc(-n2cc(-c3ccccc3)c3c(N4CCCCC4)ncnc32)c1`, which “activity change, negative = inhibition” value is on record?
A: Its value is inactive: -6.22%.

Q: With `CCOC(=O)C1CCN(c2nc3c(S(=O)(=O)c4ccc(Br)cc4)nnn3c3ccsc23)CC1` as the compound, how does the “outcome” value read?
A: Its value is “inactive”.

Q: For `COc1ccc(CCNC(=O)Cn2cc(C(=O)c3ccc(Cl)cc3)c(=O)c3ccc(C)nc32)cc1OC`, which “activity change, negative = inhibition” value is on record?
A: Its value is inactive: 4.4%.

Q: For `Cc1ccc(N2CC(C(=O)NCCS(=O)(=O)N3CCN(c4ccccc4)CC3)CC2=O)cc1` (centres undefined), which “activity change, negative = inhibition” value is on record?
A: The value was inactive: 3.94%.

Q: With `Cn1c(=O)n(C)c2cc(NS(=O)(=O)c3ccc(F)cc3)c(NCc3ccccc3)cc21` as the compound, how does the “activity change, negative = inhibition” value read?
A: Its value is inactive: 3.76%.

Q: With `CCOC(=O)c1cccc(NC(=O)Cn2nc3c(cc2=O)CCCC3)c1` as the compound, how does the “activity change, negative = inhibition” value read?
A: The value was inactive: 3.64%.

Q: For `COc1ccc(CNC(=O)c2cc3c(-c4ccc(Cl)cc4)nn(C)c3s2)cc1`, which “activity change, negative = inhibition” value is on record?
A: The value was inactive: -25.6%.

Q: Which “activity change, negative = inhibition” value does the source give for `COCCN1C(=O)c2oc3cc(C)cc(C)c3c(=O)c2C1c1cccc(O)c1` (centres undefined) here?
A: The value was inactive: -4.55%.

Q: Which “activity change, negative = inhibition” value does the source give for `COc1ccc(S(=O)(=O)N(CCc2ccccc2)CC(=O)NCc2ccccc2)cc1` here?
A: Its value is inactive: -2.77%.

Q: For `CCCn1cc(S(=O)(=O)c2cccc(Cl)c2)c(=O)c2cc(F)c(N3CCOCC3)cc21`, which “activity change, negative = inhibition” value is on record?
A: The value was inactive: -1.02%.

Q: For `O=S(=O)(Nc1ccc(-c2ccc(N3CCCCC3)nn2)cc1)c1ccc(OC(F)(F)F)cc1`, which “activity change, negative = inhibition” value is on record?
A: Its value is inactive: -28.4%.

Q: For `Cc1c(C(=O)NC(C)c2ccccc2)sc2ncnc(N(C)C3CCCCC3)c12` (centres undefined), which “activity change, negative = inhibition” value is on record?
A: Its value is inactive: -2.24%.

Q: With `Cc1ccc(-c2c(CN3CCN(c4cc(C)ccc4C)CC3)csc2C)cc1` as the compound, how does the “activity change, negative = inhibition” value read?
A: The value was inactive: 3.54%.

Q: For `CCc1ccccc1NC(=O)CN1C(=O)CCn2nc(-c3cccn3C)cc21`, which “activity change, negative = inhibition” value is on record?
A: Its value is inactive: -3.88%.

Q: For `Cc1nn(-c2ccc(N3CCCCC3)nn2)c(C)c1CCC(=O)NCc1ccc(F)cc1`, which “outcome” value is on record?
A: Its value is “inactive”.

Q: Which “activity change, negative = inhibition” value does the source give for `CCc1ccc(NC(=O)c2cnn(-c3c(C)cccc3C)c2C2CCN(C(=O)OC(C)(C)C)CC2)cc1` here?
A: Its value is inactive: 10.8%.

Q: Which “activity change, negative = inhibition” value does the source give for `CCOC(=O)c1[nH]c2c(c1Cc1ccccc1C)C(=O)CC(c1ccccc1)C2` (centres undefined) here?
A: Its value is inactive: -0.0887%.

Q: For `COC(=O)c1ccc(NC(=O)n2ncc3c(C)cccc32)cc1`, which “activity change, negative = inhibition” value is on record?
A: The value was inactive: -3.57%.

Q: With `CC1=C(c2ccc(C(C)C)cc2)S(=O)(=O)N=C1N1CCC(C(=O)Nc2ccc(C)cc2)CC1` as the compound, how does the “activity change, negative = inhibition” value read?
A: The value was inactive: -3.18%.

Q: With `CCOc1ccc(-c2nnc(SCC(=O)Nc3ccc(C)cc3C)o2)cc1` as the compound, how does the “outcome” value read?
A: The value was “inactive”.

Q: For `COc1ccc(-c2cn3c(n2)sc2cc(C(=O)Nc4ccc(C)c(Cl)c4)ccc23)cc1`, which “activity change, negative = inhibition” value is on record?
A: Its value is inactive: -2.2%.

Q: Which “activity change, negative = inhibition” value does the source give for `CCOC(=O)c1c(C)[nH]c(C)c1S(=O)(=O)N1CCC(C(=O)Nc2ccccc2CC)CC1` here?
A: The value was inactive: 3.28%.

Q: With `Cn1c(=O)cc(SCC(=O)NCc2ccc(F)cc2)c2cc(Cl)ccc21` as the compound, how does the “activity change, negative = inhibition” value read?
A: The value was inactive: 6.77%.
